According to ChEMBL document CHEMBL4888484, “Replenishing the malaria drug discovery pipeline: Screening and hit evaluation of the MMV Hit Generation Library 1 (HGL1) against asexual blood stage Plasmodium falciparum ,using a nano luciferase reporter read-out” (2022):
Out of some 150,000 compounds screened, about 540 (0.36%) showed an effect of 50% or more. The list shows a part of the results.

Tested on: Plasmodium falciparum
Assay: Primary screen in NF54 nanoGlo assay, in single point, at 2uM, 72h; a lower Z score goes with more inhibition
Assay type: functional, Erythrocyte
Details: timepoint 72 hour

| Compound | % Inhibition [%] | Z score |
| --- | --- | --- |
| Cc1c(CN2CCN(C3CCN(C(C)C)CC3)[C@@H](CCO)C2)[nH]c2c(Cl)cccc12 | 11 | -1.74 |
| N#CC1(C#N)C(C(N)=O)C1c1ccccc1 (stereo not drawn) | 10 | -1.96 |
| CCC(=O)NCc1nc2c(n1C)CN(C(=O)c1ccc(CC)cc1)CC2 | 2 | -0.2 |
| C[C@H]1CN(S(=O)(=O)c2ccc3ccccc3c2)CCO1 | -16 | 2.82 |
| C[C@@]1(O)CCN(CC2CCCCC2)C[C@H]1N1CCCC1 | -13 | 1.69 |
| CS(=O)(=O)C1CCCC(NC(=O)C2CCCc3ccccc32)C1 (stereo not drawn) | -14 | 2.54 |
| COc1cc(/C=C/C2CCCCC2)nc(N)n1 | 4 | -0.53 |
| Cc1ccc(S(=O)(=O)NCCc2nc(-c3ccc(=O)[nH]c3)no2)cc1 | 2 | -0.41 |
| CN(C)C(=O)c1ccc(NCCNC(=O)OC(C)(C)C)c(N)c1 | 3 | -0.37 |
| CCN1CCC(CCNC(=O)N2CCN(c3ccccc3)C(=O)[C@@H]2C)CC1 | 7 | -1.1 |
| CCCCN1C(=O)CC(C(=O)NC2CCN(Cc3ccc(F)c(F)c3)CC2)C1c1ccc(OC)cc1 (stereo not drawn) | -6 | 0.93 |
| CC1(C)[C@@H](c2ccc(Cl)cc2)CCN1Cc1nc(C(=O)O)co1 | 2 | -0.28 |
| CCc1ncsc1NC(=O)c1sc(CC2CC2)nc1C | -12 | 1.53 |
| CCn1ncc(NC(=O)Cn2cc(-c3ncnc4sccc34)cn2)n1 | -3 | 0.49 |
| O=C(NC1C=CCCC1)[C@H]1CC=CC[C@H]1C(=O)NC1C=CCCC1 (stereo partly drawn) | -8 | 0.99 |
| Cc1cc(F)ccc1NC(=O)Cn1c(=O)ccc2cc(S(=O)(=O)N3CCCC3)ccc21 | -11 | 1.42 |
| CCn1nc(C)c(CN2CCC[C@H]2c2ccnn2C)n1 | -7 | 1.04 |
| COC[C@H](NC(=O)Cc1nonc1C)c1ccccn1 | 0 | -0.03 |
| CNC(=N[C@@H](C)c1cccs1)NCCN1CCCCC1 | -10 | 1.96 |
| O=C(Nc1ccccc1F)[C@@H]1COCC(=O)N1Cc1cccs1 | -1 | 0.2 |
| CS(=O)(=O)NCCCNc1nc(-c2ccc(Cl)cc2)no1 | 31 | -3.5 |
| CC1OCCC1NC(=O)NC1CCOC(c2ccccc2)C1 (stereo not drawn) | -2 | 0.38 |
| CCc1ccccc1NC(=O)N1CCN(c2nc3cc(Br)ccc3n3cccc23)CC1 | -7 | 0.99 |
| CNc1cc(N2CCC(c3nnc(CN4CCCC4)n3C)CC2)nc(N)n1 | -1 | 0.11 |
| CCn1ccc(C(=O)N2CCC[C@](C)(c3noc(C4CCOCC4)n3)C2)n1 | -7 | 1.13 |
| COCc1nccc(NC(=O)NCc2c(F)cc(C)cc2F)n1 | -11 | 1.85 |
| O=C(CN1C(=O)CNC1=O)N[C@@H]1[C@H]2CCO[C@H]2[C@H]1Cc1ccccc1 | -23 | 2.22 |

| Compound | % Inhibition [%] | Z score |
| --- | --- | --- |
| CCCS(=O)(=O)N(CCOC)CC(=O)N(Cc1ccc(Cl)cc1)C1CCN(C(=O)Nc2ccccc2OC)CC1 | -16 | 1.66 |
| CC(NCC1CN(C)CCO1)C(=O)N1CCN(c2ccccc2)CC1 (stereo not drawn) | 0 | 0.02 |
| C=C(C)CNC(=O)NCc1ccc(C(C)(C)O)cc1 | -15 | 3.03 |
| O=C(Nc1ccccc1F)N1CC(N(Cc2ccccc2)C2CCOCC2)C1 | 13 | -2.55 |
| CN1CCN(c2ccnc(C(=O)NCc3ccccc3)c2)CC1=O | -12 | 1.54 |
| COc1cccc(-n2cnc3c2N=C(O)C[C@@H]3c2cccc(F)c2F)c1 | 33 | -3.75 |
| CC1(C)C[C@@H]1NC(=O)N1CCn2cncc2C1 | -6 | 0.79 |
| CCCn1nccc1C(=O)N1CCCC[C@H]1c1ccco1 | -6 | 0.59 |
| O=C(C[C@H]1CCc2n[nH]c(=O)n2CC1)NCCc1cccs1 | 4 | -0.6 |
| CC(=O)N1CCCN(C[C@H]2CCCN(C(=O)OC(C)(C)C)C2)CC1 | -10 | 1.01 |
| COc1ccc(OC)c(NC(=O)CC(C)NC2CCCc3occc32)c1 (stereo not drawn) | -6 | 0.6 |
| CCC(CC)N(C)S(=O)(=O)c1cccnc1 | -3 | 0.33 |
| COCCN1C(=O)[C@@H]2CC[C@H]1CN(c1cc(C(C)C)nc(C)n1)C2 | -7 | 1.43 |
| Cn1cc(CCNC(=O)C(=O)Nc2cc(F)c(F)c(F)c2)cn1 | -13 | 1.13 |
| COC(=O)[C@@H](C)CN(C)c1ncnc2[nH]ccc12 | 3 | -0.41 |
| Cc1ccc2[nH]c(CNC3CCN(c4ccccc4C)CC3)nc2c1 | -6 | 1.26 |
| CCN(CCS(N)(=O)=O)Cc1cc(Br)ccc1F | 4 | -0.43 |
| Cc1cc(=O)n(CCN2CCC[C@H](C#N)C2)c(=O)[nH]1 | -12 | 2.14 |
| CC1CC(Nc2cnn3ccccc23)CCO1 (stereo not drawn) | -5 | 1.08 |
| O=C(NCc1nnc2n1CCC2)[C@@H]1Cc2cc(Cl)ccc2N1 | -15 | 2.78 |
| O=C1CC2(CCN(S(=O)(=O)c3ccc(-n4cccn4)cc3)CC2)CN1 | 3 | -0.53 |
| COc1ccc2[nH]c(CN3CCOC4(CCCC4)C3)c(C)c2c1 | -1 | 0.19 |
| CC(NC1(CO)CCc2ccccc21)c1nccs1 (stereo not drawn) | -2 | 0.33 |
| COc1ccc(S(=O)(=O)N2C[C@@H]3CCCN3c3ccc(C(F)(F)F)cc32)cc1 | 31 | -3.98 |
| CC(=Cc1ccccc1)CN1CC[C@@](F)(CO)C1 | 1 | -0.15 |
| CCNC(=O)[C@@H]1CC[C@](C)(C(=O)Nc2c(CC)c(CC)nn2C)C1(C)C | -13 | 1.2 |
| COc1ccc(CNC(=O)c2ccc3c(c2)N(C)C(=O)[C@@H]2CCCCN32)cc1OC | -7 | 0.92 |
